Experimental data taken from a collection of fitness landscapes (doi:10.1126/science.1257360).
The other results are listed elsewhere or left out.

B1: PhoQ; a variant is named by its letters at X, in order, P23837 (parent)
chain: MKKLLRLFFPLSLRVRFLLATAAVVLVLSLAYGMVALIGYSVSFDKTTFRLLRGESNLFYTLAKWENNKLHVELPENIDKQSPTMTLIYDENGQLLWAQRDVPWLMKMIQPDWLKSNGFHEIEADVNDTSLLLSGDHSIQQQLQEVREDDDDAEMTHSVAVNVYPATSRMPKLTIVVVDTIPVELKSSYMVWSWFIYVLSANLLLVIPLLWVAAWWSLRPIEALAKEVRELEEHNRELLNPATTRELTSLVRNLNRLLKSERERYDKYRTTLTDLTHSLKTPLXXLQXXLRSLRSEKMSVSDAEPVMLEQISRISQQIGYYLHRASMRGGTLLSRELHPVAPLLDNLTSALNKVYQRKGVNISLDISPEISFVGEQNDFVEVMGNVLDNACKYCLEFVEISARQTDEHLYIVVEDDGPGIPLSKREVIFDRGQRVDTLRPGQGVGLAVAREITEQYEGKIVAGESMLGGARMEVIFGRQHSAPKDE

Variants of: B1
Experiment: enrichment ratio after two sorts for PhoP signalling (ratio (wild type AVST 3.29)); higher = more functional
Conditions: with PhoP (E. coli)

QKTP and RNSQ cannot be ordered by enrichment ratio: at most 0.25 for the first, at most 0.25 for the second.

KLLL and IQPM cannot be ordered by enrichment ratio: at most 0.25 for the first, at most 0.25 for the second.

Going from AYLT to MEQH, the enrichment ratio falls from 0.401 to at most 0.25.

IAPP and MPFD cannot be ordered by enrichment ratio: at most 0.25 for the first, at most 0.25 for the second.

DWTV and TWQV cannot be ordered by enrichment ratio: at most 0.25 for the first, at most 0.25 for the second.

KNCQ and VKNL cannot be ordered by enrichment ratio: at most 0.25 for the first, at most 0.25 for the second.

ATFV and PNID cannot be ordered by enrichment ratio: at most 0.25 for the first, at most 0.25 for the second.

LYLG and HHIL cannot be ordered by enrichment ratio: at most 0.25 for the first, at most 0.25 for the second.

PVWP and MYGM cannot be ordered by enrichment ratio: at most 0.25 for the first, at most 0.25 for the second.

TGWE and IDSS cannot be ordered by enrichment ratio: at most 0.25 for the first, at most 0.25 for the second.

RNAV and FEFR cannot be ordered by enrichment ratio: at most 0.25 for the first, at most 0.25 for the second.

HTIS and ERDW cannot be ordered by enrichment ratio: at most 0.25 for the first, at most 0.25 for the second.

NVKC and DGRC cannot be ordered by enrichment ratio: at most 0.25 for the first, at most 0.25 for the second.

VTFD and KHMP cannot be ordered by enrichment ratio: at most 0.25 for the first, at most 0.25 for the second.

IDPA and IVVS cannot be ordered by enrichment ratio: at most 0.25 for the first, at most 0.25 for the second.

FRVK and KALR cannot be ordered by enrichment ratio: at most 0.25 for the first, at most 0.25 for the second.

Going from HAYK to HGYL, the enrichment ratio rises from at most 0.25 to 2.16.

QIWH and KYIG cannot be ordered by enrichment ratio: at most 0.25 for the first, at most 0.25 for the second.

ACHL and NIPC cannot be ordered by enrichment ratio: at most 0.25 for the first, at most 0.25 for the second.

QGPK and PTPS cannot be ordered by enrichment ratio: at most 0.25 for the first, at most 0.25 for the second.

NEYN and WTTR cannot be ordered by enrichment ratio: at most 0.25 for the first, at most 0.25 for the second.

WFSG and NKMV cannot be ordered by enrichment ratio: at most 0.25 for the first, at most 0.25 for the second.

FNTI and KNIP cannot be ordered by enrichment ratio: at most 0.25 for the first, at most 0.25 for the second.

VNME and DSIM cannot be ordered by enrichment ratio: at most 0.25 for the first, at most 0.25 for the second.

VHSQ and SHWW cannot be ordered by enrichment ratio: at most 0.25 for the first, at most 0.25 for the second.

FNHS and GHAP cannot be ordered by enrichment ratio: at most 0.25 for the first, at most 0.25 for the second.

FAWT and SSRC cannot be ordered by enrichment ratio: at most 0.25 for the first, at most 0.25 for the second.

VGSY and HCFR cannot be ordered by enrichment ratio: at most 0.25 for the first, at most 0.25 for the second.

EVTG and ADPI cannot be ordered by enrichment ratio: at most 0.25 for the first, at most 0.25 for the second.

VREY and LYRA cannot be ordered by enrichment ratio: at most 0.25 for the first, at most 0.25 for the second.

RNGV and RHRA cannot be ordered by enrichment ratio: at most 0.25 for the first, at most 0.25 for the second.

WGNP and PSYE cannot be ordered by enrichment ratio: at most 0.25 for the first, at most 0.25 for the second.

MHNY and GNSR cannot be ordered by enrichment ratio: at most 0.25 for the first, at most 0.25 for the second.

MGIY and KKTP cannot be ordered by enrichment ratio: at most 0.25 for the first, at most 0.25 for the second.

AYTR and KRKL cannot be ordered by enrichment ratio: at most 0.25 for the first, at most 0.25 for the second.

DYMS and PHLP cannot be ordered by enrichment ratio: at most 0.25 for the first, at most 0.25 for the second.

TMRM and NCRR cannot be ordered by enrichment ratio: at most 0.25 for the first, at most 0.25 for the second.

NPYL and VVMT cannot be ordered by enrichment ratio: at most 0.25 for the first, at most 0.25 for the second.

VAKT and DANW cannot be ordered by enrichment ratio: at most 0.25 for the first, at most 0.25 for the second.

YTWG and YQVG cannot be ordered by enrichment ratio: at most 0.25 for the first, at most 0.25 for the second.

GKKR and EPSK cannot be ordered by enrichment ratio: at most 0.25 for the first, at most 0.25 for the second.

TRIG and SPET cannot be ordered by enrichment ratio: at most 0.25 for the first, at most 0.25 for the second.

NWGM and SQCP cannot be ordered by enrichment ratio: at most 0.25 for the first, at most 0.25 for the second.

MKQW and KLPN cannot be ordered by enrichment ratio: at most 0.25 for the first, at most 0.25 for the second.

RRTR and STEG cannot be ordered by enrichment ratio: at most 0.25 for the first, at most 0.25 for the second.

IKYA and CVPI cannot be ordered by enrichment ratio: at most 0.25 for the first, at most 0.25 for the second.

GRSI and GPTS cannot be ordered by enrichment ratio: at most 0.25 for the first, at most 0.25 for the second.

HPPG and PYKQ cannot be ordered by enrichment ratio: at most 0.25 for the first, at most 0.25 for the second.

Compared with TGFF, DVRG is lower in enrichment ratio: 0.829 for the first, at most 0.25 for the second.

GKAP and NEAA cannot be ordered by enrichment ratio: at most 0.25 for the first, at most 0.25 for the second.

DWSV and RCQT cannot be ordered by enrichment ratio: at most 0.25 for the first, at most 0.25 for the second.

NMCP and LRLV cannot be ordered by enrichment ratio: at most 0.25 for the first, at most 0.25 for the second.

MKMQ and ATWS cannot be ordered by enrichment ratio: at most 0.25 for the first, at most 0.25 for the second.

FYPE and RDTT cannot be ordered by enrichment ratio: at most 0.25 for the first, at most 0.25 for the second.

AVWN and KHQF cannot be ordered by enrichment ratio: at most 0.25 for the first, at most 0.25 for the second.

YDQD and RCRY cannot be ordered by enrichment ratio: at most 0.25 for the first, at most 0.25 for the second.

Going from SKTN to TQWQ, the enrichment ratio rises from 1.11 to 5.92.

FEFN and TDRS cannot be ordered by enrichment ratio: at most 0.25 for the first, at most 0.25 for the second.

DKEP and NQLR cannot be ordered by enrichment ratio: at most 0.25 for the first, at most 0.25 for the second.

MNEV and NFGF cannot be ordered by enrichment ratio: at most 0.25 for the first, at most 0.25 for the second.

LHNQ and HVRI cannot be ordered by enrichment ratio: at most 0.25 for the first, at most 0.25 for the second.

PVGM and TPDI cannot be ordered by enrichment ratio: at most 0.25 for the first, at most 0.25 for the second.

VLYQ and LENE cannot be ordered by enrichment ratio: at most 0.25 for the first, at most 0.25 for the second.

PRFH and QKFR cannot be ordered by enrichment ratio: at most 0.25 for the first, at most 0.25 for the second.

PDAK and GLPW cannot be ordered by enrichment ratio: at most 0.25 for the first, at most 0.25 for the second.

QGGH and STRM cannot be ordered by enrichment ratio: at most 0.25 for the first, at most 0.25 for the second.

IWSW and KVAV cannot be ordered by enrichment ratio: at most 0.25 for the first, at most 0.25 for the second.

First: GARP
Second: TAYT
The enrichment ratio of the first is lower: at most 0.25 for the first, 0.959 for the second.

LVAL and FSEC cannot be ordered by enrichment ratio: at most 0.25 for the first, at most 0.25 for the second.

YVSV and VLLG cannot be ordered by enrichment ratio: at most 0.25 for the first, at most 0.25 for the second.

KIFV and TPMS cannot be ordered by enrichment ratio: at most 0.25 for the first, at most 0.25 for the second.

DNVE and AQRN cannot be ordered by enrichment ratio: at most 0.25 for the first, at most 0.25 for the second.

PQKY and WGTS cannot be ordered by enrichment ratio: at most 0.25 for the first, at most 0.25 for the second.

MDPD and RETS cannot be ordered by enrichment ratio: at most 0.25 for the first, at most 0.25 for the second.

Going from MTAL to TAFK, the enrichment ratio falls from 5.98 to at most 0.25.

SWCY and PDPR cannot be ordered by enrichment ratio: at most 0.25 for the first, at most 0.25 for the second.

KTDA and MRFQ cannot be ordered by enrichment ratio: at most 0.25 for the first, at most 0.25 for the second.

YIPN and QVAW cannot be ordered by enrichment ratio: at most 0.25 for the first, at most 0.25 for the second.

PEEQ and KYST cannot be ordered by enrichment ratio: at most 0.25 for the first, at most 0.25 for the second.

STAK and DKSR cannot be ordered by enrichment ratio: at most 0.25 for the first, at most 0.25 for the second.

LKRI and IWCG cannot be ordered by enrichment ratio: at most 0.25 for the first, at most 0.25 for the second.

SLMY and HHLQ cannot be ordered by enrichment ratio: at most 0.25 for the first, at most 0.25 for the second.

YQYQ and PTRY cannot be ordered by enrichment ratio: at most 0.25 for the first, at most 0.25 for the second.

HWKT and WSQF cannot be ordered by enrichment ratio: at most 0.25 for the first, at most 0.25 for the second.

Going from YCDR to MNIT, the enrichment ratio rises from at most 0.25 to 4.55.

NPRP and FFYM cannot be ordered by enrichment ratio: at most 0.25 for the first, at most 0.25 for the second.

RIRH and WVLI cannot be ordered by enrichment ratio: at most 0.25 for the first, at most 0.25 for the second.

Compared with QMNN, AREC is lower in enrichment ratio: 12.1 for the first, at most 0.25 for the second.

KARG and TFPL cannot be ordered by enrichment ratio: at most 0.25 for the first, at most 0.25 for the second.

EMNH and WWHQ cannot be ordered by enrichment ratio: at most 0.25 for the first, at most 0.25 for the second.

PNDE and PLTR cannot be ordered by enrichment ratio: at most 0.25 for the first, at most 0.25 for the second.

Going from LRVW to TNLL, the enrichment ratio rises from at most 0.25 to 4.87.

KTHK and HLTF cannot be ordered by enrichment ratio: at most 0.25 for the first, at most 0.25 for the second.

ITNA and VSYT cannot be ordered by enrichment ratio: at most 0.25 for the first, at most 0.25 for the second.

RDRT and YFHK cannot be ordered by enrichment ratio: at most 0.25 for the first, at most 0.25 for the second.

PHFD and DVQC cannot be ordered by enrichment ratio: at most 0.25 for the first, at most 0.25 for the second.

FMWD and NKEK cannot be ordered by enrichment ratio: at most 0.25 for the first, at most 0.25 for the second.

For SYGA, the enrichment ratio was at most 0.25.
